Measured values taken from PMC9911399, “Two distinct binding modes provide the RNA-binding protein RbFox with extraordinary sequence specificity”.
Substitutions are numbered along the chain they refer to; changes in the protein carry UniProt numbers. The list shows a part of the results.

T1: RBFOX1 RRM (Homo sapiens, UniProt Q9NWB1 109-208)
T1 sequence: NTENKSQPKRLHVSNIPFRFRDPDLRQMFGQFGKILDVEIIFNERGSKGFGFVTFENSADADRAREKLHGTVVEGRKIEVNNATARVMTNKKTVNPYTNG

B1: CAAGUAG (DNA:RNA)
RNA: GGGAGACCGGAAUUCAGAUUGUCCCAAGUAGUUAAAUCCCGUCGUAGCCACCA
DNA 1: CAATCTGAATTCCGGTCTCCC
DNA 2: TGGTGGCTACGACGGGATT
B2: CCGUAGC (DNA:RNA)
RNA: B1 RNA with A26C, A27G, G28U, U29A, A30G, G31C
DNA 1: CAATCTGAATTCCGGTCTCCC
DNA 2: TGGTGGCTACGACGGGATT
B3: GACCGCG (DNA:RNA)
RNA: B1 RNA with C25G, A27C, G28C, U29G, A30C
DNA 1: CAATCTGAATTCCGGTCTCCC
DNA 2: TGGTGGCTACGACGGGATT
B4: UUGUUUC (DNA:RNA)
RNA: B1 RNA with C25U, A26U, A27G, G28U, A30U, G31C
DNA 1: CAATCTGAATTCCGGTCTCCC
DNA 2: TGGTGGCTACGACGGGATT
B5: UACGGAG (DNA:RNA)
RNA: B1 RNA with C25U, A27C, U29G
DNA 1: CAATCTGAATTCCGGTCTCCC
DNA 2: TGGTGGCTACGACGGGATT
B6: UGGCUGG (DNA:RNA)
RNA: B1 RNA with C25U, A26G, A27G, G28C, A30G
DNA 1: CAATCTGAATTCCGGTCTCCC
DNA 2: TGGTGGCTACGACGGGATT
B7: GAUGGCA (DNA:RNA)
RNA: B1 RNA with C25G, A27U, U29G, A30C, G31A
DNA 1: CAATCTGAATTCCGGTCTCCC
DNA 2: TGGTGGCTACGACGGGATT
B8: AUGGCGA (DNA:RNA)
RNA: B1 RNA with C25A, A26U, A27G, U29C, A30G, G31A
DNA 1: CAATCTGAATTCCGGTCTCCC
DNA 2: TGGTGGCTACGACGGGATT
B9: GUAAGAU (DNA:RNA)
RNA: B1 RNA with C25G, A26U, G28A, U29G, G31U
DNA 1: CAATCTGAATTCCGGTCTCCC
DNA 2: TGGTGGCTACGACGGGATT
B10: GGAUGCC (DNA:RNA)
RNA: B1 RNA with C25G, A26G, G28U, U29G, A30C, G31C
DNA 1: CAATCTGAATTCCGGTCTCCC
DNA 2: TGGTGGCTACGACGGGATT
B11: UCGGUGU (DNA:RNA)
RNA: B1 RNA with C25U, A26C, A27G, A30G, G31U
DNA 1: CAATCTGAATTCCGGTCTCCC
DNA 2: TGGTGGCTACGACGGGATT
B12: UGGAUCU (DNA:RNA)
RNA: B1 RNA with C25U, A26G, A27G, G28A, A30C, G31U
DNA 1: CAATCTGAATTCCGGTCTCCC
DNA 2: TGGTGGCTACGACGGGATT
B13: UCCACCA (DNA:RNA)
RNA: GGGAGACCGGAAUUCAGAUUGUCCUCCACCAUUAAAUCCCGUCGUAGCCACCA
DNA 1: CAATCTGAATTCCGGTCTCCC
DNA 2: TGGTGGCTACGACGGGATT
B14: UGUACCC (DNA:RNA)
RNA: B13 RNA with C26G, C27U, A31C
DNA 1: CAATCTGAATTCCGGTCTCCC
DNA 2: TGGTGGCTACGACGGGATT
B15: UGAGACG (DNA:RNA)
RNA: B1 RNA with C25U, A26G, U29A, A30C
DNA 1: CAATCTGAATTCCGGTCTCCC
DNA 2: TGGTGGCTACGACGGGATT
B16: UUCGAUA (DNA:RNA)
RNA: B13 RNA with C26U, A28G, C29A, C30U
DNA 1: CAATCTGAATTCCGGTCTCCC
DNA 2: TGGTGGCTACGACGGGATT
B17: UUGUAAG (DNA:RNA)
RNA: B1 RNA with C25U, A26U, A27G, G28U, U29A
DNA 1: CAATCTGAATTCCGGTCTCCC
DNA 2: TGGTGGCTACGACGGGATT
B18: AGUUAAU (DNA:RNA)
RNA: B1 RNA with C25A, A26G, A27U, G28U, U29A, G31U
DNA 1: CAATCTGAATTCCGGTCTCCC
DNA 2: TGGTGGCTACGACGGGATT
B19: ACAUCGA (DNA:RNA)
RNA: B13 RNA with U25A, C27A, A28U, C30G
DNA 1: CAATCTGAATTCCGGTCTCCC
DNA 2: TGGTGGCTACGACGGGATT
B20: GGUACGG (DNA:RNA)
RNA: B13 RNA with U25G, C26G, C27U, C30G, A31G
DNA 1: CAATCTGAATTCCGGTCTCCC
DNA 2: TGGTGGCTACGACGGGATT

molecular target: T1, RBFOX1 RRM; assay: EMSA; HiTS-Eq, 1 nM pool, 10 min; buffer printed only for the single-RNA assays: 10 mM Tris pH 7.5, 150 mM NaCl, 3.4 mM EDTA, 0.001% NP-40, 30 C; conditions: tags: His6 N-terminal (pET28a); label: 5' 32P
Outline: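 Relative association constants, normalised to the cognate motif, were derived by comparing read counts of each RNA species with those of the control reaction. The RNA sequenced was the free fraction, separated by 8% native PAGE after a 10 min equilibration in 50 µL of 1 nM 5′-radiolabelled RNA (7 randomized nucleotides) with increasing concentrations of purified wild-type or mutant RbFox RRM.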

Q: For B1, which binding signal is on record?
A: 0.00571 KA relative to UGCAUGU

Q: Which binding signal does the source give for B2 here?
A: 0.00665 KA relative to UGCAUGU

Q: For B3, which binding signal is on record?
A: 0.0112 KA relative to UGCAUGU

Q: How did the binding signal turn out when B4 was run?
A: 0.021 KA relative to UGCAUGU

Q: Which binding signal does the source give for B5 here?
A: 0.00489 KA relative to UGCAUGU

Q: With B6 as the binder, how does the binding signal read?
A: 0.0415 KA relative to UGCAUGU

Q: B7 was tested. Which binding signal did it give?
A: 0.0234 KA relative to UGCAUGU

Q: How did the binding signal turn out when B8 was run?
A: 0.0144 KA relative to UGCAUGU

Q: B9 was tested. Which binding signal did it give?
A: 0.0111 KA relative to UGCAUGU

Q: For B10, which binding signal is on record?
A: 0.0339 KA relative to UGCAUGU

Q: How did the binding signal turn out when B11 was run?
A: 0.0232 KA relative to UGCAUGU

Q: B12 was tested. Which binding signal did it give?
A: 0.0236 KA relative to UGCAUGU

Q: B13 was tested. Which binding signal did it give?
A: 0.00192 KA relative to UGCAUGU

Q: For B14, which binding signal is on record?
A: 0.00639 KA relative to UGCAUGU

Q: With B15 as the binder, how does the binding signal read?
A: 0.0138 KA relative to UGCAUGU

Q: B16 was tested. Which binding signal did it give?
A: 0.0123 KA relative to UGCAUGU

Q: For B17, which binding signal is on record?
A: 0.0175 KA relative to UGCAUGU

Q: For B18, which binding signal is on record?
A: 0.00205 KA relative to UGCAUGU

Q: How did the binding signal turn out when B19 was run?
A: 0.00224 KA relative to UGCAUGU

Q: B20 was tested. Which binding signal did it give?
A: 0.00424 KA relative to UGCAUGU
